# Test results: the supplement of paper PMC12889115
# This is one part of the list. Cut-off read from the data, not from the text of the source: active = 25% or less and inactive = the rest. Single values are uncertain, as repeats are few or missing.
# Assays:
# [1] = system: Salmonella enterica serovar Typhimurium SL1344; test: bacterial growth OD600 after 18 h in MHB with 0.5 µg/mL polymyxin B; higher = more bacterial growth (less inhibition); conditions: 25 µM; polymyxin B 0.5 µg/mL; system: broth
# Method: (§1)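 Secondary screen of the 553 primary hits at 25 µM. (i) S. Typhimurium SL1344 grown in Mueller-Hinton broth with 0.5 µg/mL polymyxin B, OD600 read after 18 h. (ii) SAFIRE assay: RAW 264.7 macrophages infected with S. Typhimurium sifB::gfp (MOI 30); compound added 2 h post-infection; cells fixed at 18 h; GFP-positive pixel fraction per macrophage imaged by confocal microscopy and expressed as % of DMSO control.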
# [2] = system: Salmonella enterica serovar Typhimurium SL1344; test: intramacrophage bacterial GFP load (SAFIRE), percent of DMSO control (% of DMSO); higher = more intracellular bacteria (less inhibition); conditions: 25 µM; system: infected RAW 264.7 macrophages
# Method: as §1
# 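Throughout, for bacterial growth OD600 after 18 h in MHB with 0.5 µg/mL polymyxin B: polymyxin B level opens the outer membrane while sparing the inner membrane, with novobiocin wells as reference growth inhibitor.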
# 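Throughout, for intramacrophage bacterial GFP load (SAFIRE), percent of DMSO control: compounds tested were the hits of an earlier 50 µM broth growth screen of a drug-like diversity library run with polymyxin B.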
SMILES,bacterial growth OD600 [1],intramacrophage bacterial GFP load [2]
COCCC1CCCCN1C(=O)CC1(c2ccc(-c3ccccc3)cc2)CC(=O)N(C2CC2)C1=O (stereo not given),-0.014,inactive: 52.8
Cc1c(C(=O)NCc2ccc(N3CCOCC3)cc2)oc2c(F)cccc12,0.166,inactive: 79.4
COc1cc(OC)c(CN2CCCC(C(=O)c3cccc(Cl)c3)C2)c(OC)c1 (stereo not given),0.006,active: 2.43
CCCCN(Cc1ccccc1)C(=O)CCc1nnc(C(OC)c2ccccc2)o1 (stereo not given),0.072,inactive: 136
OC(Cc1ccccc1)c1ccc2c(c1)CN(Cc1cc(F)cc(F)c1)CCO2 (stereo not given),-0.008,inactive: 70.1
